Test results as given in PubChem BioAssay AID2546 (National Center for Advancing Translational Sciences (NCATS), 2010).
The whole screen tested about 310,000 compounds, of which about 11,000 (3.5%) were called active. This list was built around the results that the source calls inconclusive (neither active nor inactive); the mix of calls is not that of the screen. The call rests on the fitted dose curve; in most records, active means well fitted inhibition curve with a large enough effect; inconclusive means small, poorly fitted or top-dose-only effect, or effect the other way; inactive means flat fitted curve, though single readings scatter. No potency is given beside an inconclusive call; the fits are too rough.

Test: VP16 counterscreen qHTS for inhibitors of ROR gamma transcriptional activity;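 further: Gal4-VP16 expression switched on by copper sulfate through the metallothionein promoter; nearly all actives have a fitted effect of over 50% in size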
Conditions: Drosophila S2 Gal4-VP16 UAS-luciferase, luminescence, 20 h; activity, negative = inhibition: at 53.6 µM (top of the series)
On the % scale 0 is the no-effect control and ±100 the full control effect; potency means the concentration at half of the fitted maximal effect; tags describe the fitted curve by direction and shape.

Row | SMILES | Potency | activity, negative = inhibition
1 | COc1ccc(Oc2ccc(/C=C/C(=O)c3ccc(O)cc3)cc2[N+](=O)[O-])cc1 | inconclusive [inhibitor, single point] | –
2 | CCN(CC)S(=O)(=O)c1ccc(/C=C/C(=O)Nc2ccc(F)cc2F)cc1 | – | inactive: -26.9%
3 | Cc1cc(C)c2nc(NNC(=O)c3ccc(S(=O)(=O)N4CCc5ccccc5C4)cc3)sc2c1 | active: 3.16 µM | –
4 | O=C1S/C(=C\c2ccc(N3CCOCC3)o2)C(=O)N1Cc1c(F)cccc1Cl | inconclusive [inhibitor, single point] | –
5 | O=S(=O)(c1cccc(-c2nc3ccccc3s2)c1)N1CCCC1 | – | inactive: 8.37%
6 | Nn1c(SCc2ccccc2)nnc1-c1ccco1 | inconclusive [activator, full curve, poor fit] | –
7 | CC1=NOC(=O)/C1=C/c1ccc2c(c1)OCO2 | – | inactive: -12.2%
8 | OC(CNc1ccccc1)COc1ccc(OCC(O)CNc2ccccc2)cc1 (stereo not drawn) | inconclusive [inhibitor, single point] | –
9 | CC(C)(C)c1ccc(C(=O)NCC(=O)OCc2ccc([N+](=O)[O-])cc2)cc1 | inconclusive [inhibitor, single point] | –
10 | COc1cc(/C=C(\C#N)c2ccccn2)ccc1OCC(=O)Nc1c(Cl)cccc1Cl | inconclusive [inhibitor, single point] | –
11 | Cc1csc(N/N=C/c2ccc(O)c([N+](=O)[O-])c2)n1 | inconclusive [inhibitor, single point] | –
12 | Cc1cc2ccccn2c1C(=O)c1ccccc1Br | inconclusive [activator, full curve, poor fit] | –
13 | COC(=O)c1cccc(NC(=O)c2ccc3c(c2)C(=O)N(C(C)(C)C)C3=O)c1 | – | inactive: 1.22%
14 | O=C1NC(=Nc2ccc(Cl)cc2)SC1Cc1cc(Cl)ccc1Cl (stereo not drawn) | inconclusive [inhibitor, single point] | –
15 | CCCCCCn1c(-c2cccs2)n[nH]c1=S | inconclusive [inhibitor, partial curve] | –
16 | Cc1ccsc1/C=C1\Oc2cc(OCC(=O)c3ccccc3)ccc2C1=O | inconclusive [inhibitor, single point] | –
17 | Cc1ccc2[nH]c(=O)c(CN(CC3COCCO3)C(=O)Nc3ccccc3F)cc2c1 (stereo not drawn) | – | inactive: 2.51%
18 | CCCC(O)(CCC)C(=O)NN(C(=O)CCl)c1cccc(C)c1 | inconclusive [inhibitor, single point] | –
19 | Cc1ccc(NC(=S)NCCSc2ccc(Cl)cc2)c(C)c1 | active: 1 µM | –
20 | Cc1cc(C)nc(NC(=S)Nc2cccc(Cl)c2Cl)c1 | active: 1.78 µM | –
21 | CCC1(C(=O)c2ccc(Cl)cc2)C2c3ccccc3OC(=O)C21C(=O)Nc1ccccc1 (stereo not drawn) | inconclusive [inhibitor, single point] | –
22 | Cc1ccc(S(=O)(=O)N(C)Cc2ccccc2)cc1C(=O)N1CCCCC1 | – | inactive: -16.8%
23 | CC(Sc1nnc(-c2ccc(OC(F)F)cc2)o1)C(=O)NCC1CCCO1 (stereo not drawn) | inconclusive [inhibitor, single point] | –
24 | CCOC(=O)c1oc2ccccc2c1NC(=O)c1cccc(OC)c1 | – | inactive: -1.61%
25 | COc1ccc(-c2nnc(Nc3nc4c(OC)cccc4s3)o2)c(OC)c1 | inconclusive [inhibitor, partial curve] | –

Row | SMILES | Potency | activity, negative = inhibition
26 | C=CCNC(=S)Nc1sc2c(c1C(=O)OCC)CCN(C(=O)OCC)C2 | active: 6.31 µM | –
27 | O=C(CCSc1ccc(Cl)cc1)N1CCCCCC1 | inconclusive [activator, partial curve] | –
28 | CCCCCn1c(SCCCC)nc2c1c(=O)[nH]c(=O)n2C | – | inactive: 13.5%
29 | O=C1CS/C(=N/N=C/c2cccs2)N1 | inconclusive [inhibitor, partial curve, poor fit] | –
30 | Cc1nc2nc(-c3ccc(F)cc3)cn2nc1C | inconclusive [inhibitor, partial curve] | –
31 | COc1cc(CN2CCC(CO)(Cc3cccc(C(F)(F)F)c3)CC2)ccc1F | inconclusive [inhibitor, full curve, poor fit] | –
32 | O=C(Cn1cnc2ccccc2c1=O)c1ccc(OC(F)F)cc1 | inconclusive [activator, partial curve] | –
33 | CCOC(=O)Cc1cc(=O)n2[nH]c(C)c(-c3ccc(Cl)cc3)c2n1 | inconclusive [inhibitor, single point] | –
34 | Cc1ccc(/C=C/C(=O)NC2CCCCCCC2)o1 | active: 12.6 µM | –
35 | C=CCOC(=O)C1=C(C)Nc2nnnn2C1c1cccs1 (stereo not drawn) | – | inactive: 5.21%
36 | COc1ccc(NC(=O)CS(=O)(=O)Cc2ccccc2)c([N+](=O)[O-])c1 | – | inactive: -14.9%
37 | COc1ccc(Cn2c3ccc(OC)cc3c3nc4ccccc4nc32)cc1 | – | inactive: -6.94%
38 | Cc1ccc(C(=O)NCC(=O)Nc2ccccc2C(F)(F)F)cc1 | – | inactive: -1.9%
39 | CN1c2ccccc2C(C)(C)[C@]12C=Cc1cc(O)ccc1O2 | active: 15.8 µM | –
40 | Cc1ccc(S(=O)(=O)N(C)Cc2ccc(C(=O)N/N=C/c3ccc(OC(F)F)cc3OC(F)F)cc2)cc1 | inconclusive [activator, single point] | –
41 | CC(C)(C)NC(=S)Nc1ccc(Nc2ccccc2)cc1 | active: 7.08 µM | –
42 | CC(C)CCC(CC(C)O)C(=O)NNC(=S)Nc1ccccc1 (stereo not drawn) | – | inactive: -7.74%
43 | COc1cccc(CN2C(=NC(=O)CCC3CCCC3)SC3CS(=O)(=O)CC32)c1 (stereo not drawn) | inconclusive [inhibitor, partial curve] | –
44 | COc1ccc(NC(=O)CC2Sc3ncnn3C2=O)cc1 (stereo not drawn) | inconclusive [inhibitor, single point] | –
45 | CCc1ccc(C(CNC(=O)c2ccc3c(=O)n(-c4ccccc4F)c(=S)[nH]c3c2)N(C)C)cc1 (stereo not drawn) | inconclusive [inhibitor, partial curve, poor fit] | –
46 | Cc1ccc(SCC2CNc3nc4ccccc4c(=O)n32)c(C)c1 (stereo not drawn) | inconclusive [inhibitor, single point] | –
47 | CCCCC(=Nc1ccccc1OC)C1=C(O)CC(c2ccccc2)CC1=O (stereo not drawn) | inconclusive [inhibitor, partial curve] | –
48 | C=CCn1c(=O)[nH]c2cc(C(=O)N3CCN(c4cc(C)ccc4C)CC3)ccc2c1=O | inconclusive [inhibitor, single point] | –
49 | c1ccc(OCCCCn2cnc3ccccc32)cc1 | inconclusive [inhibitor, single point] | –
50 | Cc1nonc1C(=O)N/N=C/c1ccncc1 | – | inactive: 16.7%

Row | SMILES | Potency | activity, negative = inhibition
51 | CN1C(=O)/C(=C\c2ccccc2F)Sc2ccc(C(=O)NC3CCN(Cc4ccccc4)CC3)cc21 | inconclusive [inhibitor, single point] | –
52 | N#C/C(=N\Nc1ccc(Cl)cc1)C(=O)c1ccccc1 | inconclusive [inhibitor, single point] | –
53 | COCC(=O)N(CCc1ccc(OC)cc1)Cc1nc2ccccc2c(=O)[nH]1 | active: 7.08 µM | –
54 | CCCc1cc(NCc2ccccn2)n2nc(C)c(-c3ccccc3)c2n1 | active: 0.562 µM | –
55 | O=C(CSc1nc(-c2ccccc2)cc(C(F)(F)F)n1)NCc1cccs1 | inconclusive [inhibitor, single point] | –
56 | CCC(C)C(NC(=O)C1CCC(C)CC1)C(=O)NCCCN1CCCCC1CC (stereo not drawn) | – | inactive: 7.75%
57 | CN1CCN(C(=O)c2ccc(COc3cc(Cl)ccc3Cl)o2)CC1 | inconclusive [activator, partial curve] | –
58 | CN(C)c1ccc(CNc2nc3ccccc3s2)cc1 | active: 7.94 µM | –
59 | CCN(CC)S(=O)(=O)c1cccc(-c2nnc(SCC(=O)NC)n2N)c1 | inconclusive [inhibitor, full curve] | –
60 | Cc1cccc(NC(=O)NCc2ccccn2)c1 | inconclusive [activator, partial curve] | –
61 | Cc1cc2cc(CNC(=S)NC3CCCCC3)ccc2[nH]1 | inconclusive [inhibitor, single point] | –
62 | CCOc1ccc(-n2c(SCC(=O)Nc3ccc(Br)cc3)nc3n[nH]c(C)c3c2=N)cc1 | inconclusive [inhibitor, partial curve] | –
63 | CCCCc1nc(NCCN2CCOCC2)c(C#N)c2c1COC(C)(C)C2 | – | inactive: 3.55%
64 | CC(=O)Nc1ccc(NC(=O)CSc2nnc(NC(=O)c3cccc(F)c3)s2)cc1 | inconclusive [inhibitor, single point] | –
65 | CCn1ccnc1CN1CCc2c([nH]c3ccccc23)C1C1CCCCC1 (stereo not drawn) | inconclusive [inhibitor, single point] | –
66 | Nc1nc(CSC(=S)N2CCOCC2)nc(Nc2ccccc2)n1 | inconclusive [activator, full curve, poor fit] | –
67 | COc1ccc(CNC(=O)N2CCN(c3cccc(C)c3C)CC2)cc1OC | – | inactive: -5.86%
68 | CCCn1c(=S)[nH]c2cc(C(=O)N(CCO)Cc3ccccc3)ccc2c1=O | inconclusive [inhibitor, single point] | –
69 | Cc1ccccc1C(=O)O/N=C(\c1ccccc1)c1ccccn1 | inconclusive [inhibitor, single point] | –
70 | CCOC(=O)c1ccc(N2C(=O)CC(Sc3nnc(C)s3)C2=O)cc1 (stereo not drawn) | inconclusive [inhibitor, single point] | –
71 | CSc1ccccc1NC(=S)NC1CCCC1 | active: 7.08 µM | –
72 | COc1cc(/C=N/n2cnnc2)ccc1OC(=O)c1cccnc1 | active: 11.2 µM | –
73 | CC(C)(CO)Cc1cc(C(C)(C)C)c(O)c(C(C)(C)C)c1 | inconclusive [inhibitor, single point] | –
